# Measured values taken from PubChem BioAssay AID463173 (ICCB-Longwood Screening Facility, Harvard Medical School, 2010).
# Hit rate of the full screen: of about 52,000 compounds, about 1,700 (3.3%) were called active. No stated cut-off is given here; in the data, active means survival mostly below about 52% (no sharp cut-off); inactive means mostly above about 56%. This is one part of the list.
# System: Wild type
# Test: S. aureus survival, RN4220 and DeltatarO strains – OD600, teichoic acid synthesis inhibitors, primary screen (AID 463173)
# Conditions: S. aureus RN4220 wild type/DeltatarO growth, OD600, 18 h, stronger effect = lower value, screened at 18.75 µg/mL (by protocol)
row,SMILES,survival
1,CC(C)(C)OC(=O)N1CCC(c2c(C(=O)NCCc3ccsc3)cnn2-c2ccccc2Cl)CC1,inactive: 73%
2,CCOc1ccc(N2C(=O)CS(=O)(=O)C23C(=O)N(Cc2cccc(Cl)c2)c2ccccc23)cc1 (stereo unspecified),inactive: 68%
3,CCOc1ccc(CN2CCc3nc(N4CCN(c5ncccn5)CC4)ncc3C2)cc1OC,inactive: 78%
4,Cc1ccc(-c2c(C(=O)N3CCN(c4cccc(C)c4)C(C)C3)oc(=O)c3ccccc23)cc1 (stereo unspecified),inactive: 80%
5,CCC(CC)C(=O)OCc1cc(=O)n2nc(C3CCCCC3)sc2n1,inactive: 63%
6,COC(=O)C1=C(C)N=C2SCCC(=O)N2C1c1ccc(OCc2ccccc2)c(OC)c1 (stereo unspecified),inactive: 85%
7,CCOC(=O)c1c(C)[nH]c(C)c1S(=O)(=O)N(C)CC(=O)N1CCN(c2ccc(Cl)cc2)CC1,inactive: 92%
8,CCOC(=O)C(=O)NCC(c1cccnc1)N1CCN(c2ccccc2)CC1 (stereo unspecified),inactive: 85%
9,CCOC(=O)CC(NC(=O)c1cc2cc(Br)cc(OC)c2oc1=O)c1ccc(OC)cc1 (stereo unspecified),inactive: 77%
10,CC(C)(C)OC(=O)N1CCC(c2c(C(=O)Nc3ccc4c(c3)OCCO4)cnn2-c2ccc(F)cc2F)CC1,inactive: 64%
11,Cn1cnc2c(=O)oc3ccc(S(=O)(=O)N4CCN(c5cccc(C(F)(F)F)c5)CC4)cc3c21,inactive: 120%
12,COc1ccc(N2CC(NC(=O)COc3ccc(F)cc3)CC2=O)cc1OC (stereo unspecified),inactive: 68%
13,COc1ccc(S(=O)(=O)NCCc2nnc3ccc(SCC(=O)Nc4cc(C)cc(C)c4)nn23)cc1,inactive: 92%
14,CCC1CN(C(=O)NCc2ccccc2)c2cc(Cl)ccc2O1 (stereo unspecified),inactive: 89%
15,O=C(Nc1cccc(OCc2cc(=O)n3ccccc3n2)c1)c1ccccc1Br,inactive: 75%
16,CCOC(=O)c1ccc(NC(=O)CSc2ccc(-c3ccccn3)nn2)cc1,inactive: 90%
17,CCN(CC)c1cc(C)c2cc(NC(=O)c3ccccc3Cl)ccc2n1,inactive: 83%
18,Cc1ccc(-c2nc3c(c(SCC(=O)N(C)c4ccccc4)n2)Cc2c(CO)cnc(C)c2O3)cc1,inactive: 94%
19,Cn1c(=O)n(C)c2cc(N3CCOCC3)c(NC(=O)c3ccc(Cl)cc3)cc21,inactive: 84%
20,Cc1cc(C)c(S(=O)(=O)NCC(=O)N2CCc3ccccc3C2)c(C)c1,inactive: 87%
21,CCC(=O)NC1CCN(C(=S)NC)CC1,inactive: 88%
22,COc1ccccc1CCNC(=O)C(=O)NCC(c1ccco1)S(=O)(=O)c1ccc(F)cc1 (stereo unspecified),inactive: 73%

row,SMILES,survival
1,Cn1c2ccccc2c2c(C(=O)N3CCN(c4cccc(Cl)c4)CC3)cn(C3CCCCC3)c(=O)c21,inactive: 80%
2,COc1ccc(OC)c(CCNC(=O)c2cc3cccc4c3n2CC(C)S4)c1 (stereo unspecified),inactive: 59%
3,Cn1c(=O)c2c(nc(CN3CCN(c4ccccc4F)CC3)n2Cc2ccccc2F)n(C)c1=O,inactive: 89%
4,O=C1C(=O)N(C2CCN(S(=O)(=O)c3ccccc3)CC2)CCN1Cc1ccccc1,inactive: 73%
5,Cc1nc2ccc(C(=O)O)cc2c2c1CC(C)S2 (stereo unspecified),inactive: 102%
6,COc1cccc(N2CCN(C(=O)C3CCCN(S(=O)(=O)c4ccc5c(c4)oc(=O)n5C)C3)CC2)c1 (stereo unspecified),inactive: 83%
7,O=C(NCc1ccc2c(c1)CCN2C(=O)c1ccncc1)c1ccccc1Cl,inactive: 72%
8,CCSc1ncc(Cl)c(C(=O)Nc2ccc(S(=O)(=O)Nc3ncccn3)cc2)n1,inactive: 90%
9,CC(C)(C)CC(=O)Nc1nnc(-c2ccccc2)s1,inactive: 103%
10,COc1cccc(CNC(=O)CCCn2ncn3c(cc4occc43)c2=O)c1OC,inactive: 112%
11,COC(=O)CN1C(=O)CSc2ccc(S(=O)(=O)Nc3cccc(C)c3)cc21,inactive: 95%
12,COCCn1nnnc1C(c1ccncc1)N1CCCC1 (stereo unspecified),inactive: 119%
13,Cc1cccc(C(=O)Nc2nc3nc(-c4ccccc4)cc(=O)n3[nH]2)c1,inactive: 95%
14,CCOc1ccc(CCNC(=O)C2CCN(Cc3nc(-c4ccc(OC)c(OC)c4)oc3C)CC2)cc1OCC,inactive: 85%
15,COc1cc(-c2nc(-c3ccc4c(c3)[nH]c(=O)n4C)no2)cc(OC)c1OC,inactive: 83%
16,CCOc1ccccc1NC(=O)C1CCN(S(=O)(=O)c2ccc3[nH]c(=O)ccc3c2)CC1,inactive: 45%
17,COc1ccc(-n2c(/C=C/c3cccc(C(F)(F)F)c3)nc3ccccc3c2=O)cc1Cl,inactive: 73%
18,COc1ccc(C2SCCN2S(=O)(=O)c2ccc(NC(C)=O)cc2)cc1OC (stereo unspecified),inactive: 99%
19,Cn1cc(S(=O)(=O)N2CCCCCC2)cc1C(=O)N1CCN(c2cccc(C(F)(F)F)c2)CC1,inactive: 73%
20,CCC(=O)N1CCc2cc(Br)cc(S(=O)(=O)N3CCCC(C(=O)NCc4ccc(F)cc4)C3)c21 (stereo unspecified),inactive: 89%
21,Cc1ccn2c(=O)cc(COc3ccc(NC(=O)COc4ccccc4)cc3)nc2c1,inactive: 70%
22,Cc1ccc(S(=O)(=O)N2CCN(Cc3cc(Br)ccc3O)CC2)cc1,inactive: 82%

row,SMILES,survival
1,N#Cc1ccccc1NC(=O)C(=O)NCCc1csc(-c2ccc(C(F)(F)F)cc2)n1,inactive: 80%
2,COc1cc(NC(=O)C2CCCCC2)c(OC)cc1NC(=O)CCC(=O)NCc1ccco1,inactive: 102%
3,O=C1CSC2(C(=O)N(Cc3ccccc3)c3ccccc32)N1c1cccc(F)c1 (stereo unspecified),inactive: 68%
4,CCc1ccc(NC(=O)COC(=O)CCCC2=NS(=O)(=O)c3ccccc3N2)cc1,inactive: 129%
5,CCOC(=O)CS(=O)(=O)c1nc2c(c(C(F)(F)F)n1)CCc1ccccc1-2,inactive: 106%
6,COc1ccc(-c2nnc(SCC(=O)Nc3cc(OC)ccc3OC)nc2-c2ccc(OC)cc2)cc1,inactive: 66%
7,Cc1ccc2nc(COc3ccccc3NC(=O)c3ccccc3C)cc(=O)n2c1,inactive: 71%
8,Cc1cccc(CCNC(=O)c2ccc3c(c2)nc2n3CCC(C)C2)c1 (stereo unspecified),inactive: 73%
9,COc1ccc(OC)c(NC(=O)c2ccc3c(SCC(=O)O)c4c(nc3c2)CCCC4)c1,inactive: 68%
10,COc1ccc(CCn2c(=O)c3cccnc3n(CC(=O)Nc3c(C)cccc3C)c2=O)cc1OC,inactive: 76%
11,CCc1cccc(C)c1NC(=O)Cn1c(=O)n(-c2ccc(C)cc2)c(=O)c2c1cnn2C,inactive: 80%
12,O=S(=O)(c1ccc(Cl)cc1)c1nc(-c2cccc(Br)c2)oc1NCc1ccccc1,inactive: 98%
13,O=C(c1ccco1)N1CCN(c2nc3c(F)cc(F)cc3s2)CC1,inactive: 120%
14,Cc1cccc(-c2noc(-c3ccc(NCc4ccco4)c([N+](=O)[O-])c3)n2)c1,inactive: 86%
15,COc1cccc(-c2ccc(-c3noc(-c4ccccc4Br)n3)c(OC)n2)c1,inactive: 37%
16,CCC(=O)N1c2ccccc2CC1C(=O)NCc1cccc(OC)c1OC (stereo unspecified),inactive: 77%
17,CCC(C)(C)C(=O)Nc1ccc(Cl)cc1,inactive: 119%
18,COc1cc(OC)cc(C(=O)Nc2cc(-c3nc4ccccc4[nH]3)ccc2C)c1,inactive: 79%
19,CCOC(=O)C1CCCN(c2nc3c(S(=O)(=O)c4ccc(Br)cc4)nnn3c3ccsc23)C1 (stereo unspecified),inactive: 78%
20,O=C(/C=C/c1ccco1)Nc1ccc(F)cc1,inactive: 69%
21,COC(=O)c1c(SC)nc2ccccc2c1OCc1ccc(Br)cc1,inactive: 47%
22,O=c1c2sccc2n(Cc2cc(=O)n3ccccc3n2)c(=O)n1-c1cc(F)ccc1F,inactive: 75%

row,SMILES,survival
1,CCn1nc(-c2ccccc2)c(-c2ccccc2)c(C(=O)Nc2ccc(S(N)(=O)=O)cc2)c1=O,inactive: 82%
2,COc1ccc(C(=O)Nc2ccc(-c3nnc4n3CCCCC4)cc2)cc1,active: -3%
3,COc1cccc2c1Oc1ncccc1N(C(=O)CCC(=O)NCCC(C)C)C2,inactive: 73%
4,Cc1ccccc1CNC(=O)c1nn(-c2ccccc2F)nc1CO,inactive: 87%
5,O=S(=O)(c1ccc(Cl)cc1)c1nc(-c2ccccc2Br)oc1NCc1ccccc1,inactive: 96%
6,Cc1cc(C)c(NC(=O)CSc2nc3ccccc3c3nc(CCn4cncc4C)nn23)c(C)c1,inactive: 72%
7,CCN1CCN(C(=O)c2ccc3c(c2)N(Cc2cccc(Cl)c2)C(=O)c2ccccc2S3=O)CC1 (stereo unspecified),inactive: 81%
8,CCN(CC)CCCNc1cc(-c2ccccc2)nc(C)n1,inactive: 85%
9,Cc1ccc(C)c(OCCn2c(C3CC(=O)N(Cc4ccc(F)cc4)C3)nc3ccccc32)c1 (stereo unspecified),active: -16%
10,COc1ccc(CCNC(=O)CSc2nc3nc(C)c(Cc4ccc(C)cc4)c(C)n3n2)cc1OC,inactive: 65%
11,Cc1ccc(/C=C/C(=O)Nc2nc(-c3cccs3)ns2)cc1,inactive: 82%
12,COc1ccc(-n2cc(C(=O)N(CCN(C)C)Cc3ccccc3)c3ccccc3c2=O)cc1,inactive: 92%
13,CCOc1ccc2nc(N3CCN(C(=O)c4ccc(S(=O)(=O)CC)cc4)CC3)sc2c1,inactive: 87%
14,COc1ccc(Cn2c(=O)[nH]c3cc(C(=O)NCCC(C)C)ccc3c2=O)cc1,inactive: 74%
15,CCn1c(C)c(C)c2cc(C(=O)NCCCN3CCCCC3C)ccc21 (stereo unspecified),inactive: 65%
16,COc1ccc(CNC(=O)CS(=O)Cc2nc(-c3ccc(OC)c(OC)c3)oc2C)cc1 (stereo unspecified),inactive: 90%
17,Cc1ccc(N(CC(=O)Nc2cccc(Cl)c2C)S(=O)(=O)c2c(C)noc2C)cc1,inactive: 74%
18,COc1cc(C(=O)N(Cc2ccc(F)cc2)Cc2ccco2)cc(OC)c1OC,inactive: 108%
19,COc1cccc(-n2c(SCc3ccc(F)cc3)nc3c([nH]c4ccccc43)c2=O)c1,inactive: 101%
20,Cc1ccc2nc(-c3ccc(Cl)s3)c(Nc3ccc4c(c3)OCCO4)n2c1,inactive: 81%
